The text below walks through data of the supplement of paper PMC10886265.

Experiment in all cases: Broth microdilution (CLSI), cation-adjusted Mueller-Hinton broth, two-fold steps from 0.25 to 128 µg/mL, 18 h at 37 °C.
(Dilution methods test growth across graded concentrations, often in twofold steps.)

Compound in one experiment: C[C@@H](O)[C@H]1C(=O)N2C(C(=O)O)=C(SCCNC=N)C[C@H]12 [Imipenem]
Compound in the next experiment: C[C@@H](O)[C@H]1C(=O)N2C(C(=O)O)=C(S[C@@H]3CN[C@H](C(=O)N(C)C)C3)[C@H](C)[C@H]12 [Meropenem]
Compound in another experiment: C[C@@H](O)[C@H]1C(=O)N2C(C(=O)O)=C(S[C@@H]3CN[C@H](C(=O)Nc4cccc(C(=O)O)c4)C3)[C@H](C)[C@H]12 [Ertapenem]

MIC by broth microdilution (CLSI, 0.25-128 µg/mL, 18 h, 37 °C) of Gram-negative wastewater isolates picked on carbapenem-selective plates; higher = less susceptible. No active / inactive call. Isolates were selected for resistance.

For the test system “Klebsiella pneumoniae isolate sewage #64 (carbapenemase genes (PCR): OXA-48)”, the MIC – broadly, the lowest concentration that inhibits growth of the organism – in the experiment with Imipenem came out at 128 µg/mL; in the experiment with Meropenem, 128 µg/mL; with Ertapenem, 64 µg/mL.
With “Klebsiella pneumoniae isolate sewage #129 (carbapenemase genes (PCR): KPC)”, the results for the minimum inhibitory concentration (MIC) in the experiment with Imipenem, in the experiment with Meropenem and with Ertapenem were 64 µg/mL, more than 128 µg/mL and 64 µg/mL, respectively.
Consider “Klebsiella pneumoniae isolate sewage #135 (carbapenemase genes (PCR): KPC)”, for which the MIC with Imipenem amounted to 32 µg/mL; in the experiment with Meropenem, 32 µg/mL; in the experiment with Ertapenem, 8 µg/mL.
Regarding “Klebsiella pneumoniae isolate sewage #136 (carbapenemase genes (PCR): KPC)”, the MIC with Imipenem was determined as 32 µg/mL; with Meropenem, 64 µg/mL; with Ertapenem, 16 µg/mL.
The corresponding values for “Klebsiella pneumoniae isolate sewage #196 (carbapenemase genes (PCR): KPC)” are 16 µg/mL, 64 µg/mL and 64 µg/mL.
The corresponding values for “Klebsiella pneumoniae isolate sewage #197 (carbapenemase genes (PCR): KPC)” are 16 µg/mL, 32 µg/mL and 16 µg/mL.
The matching figures for “Klebsiella pneumoniae isolate sewage #204 (carbapenemase genes (PCR): KPC+GES)”: 16 µg/mL, 32 µg/mL and 32 µg/mL.
For “Klebsiella pneumoniae isolate sewage #205 (carbapenemase genes (PCR): KPC+GES)”, the minimum inhibitory concentration (MIC) with Imipenem was 16 µg/mL; with Meropenem it was 16 µg/mL; in the experiment with Ertapenem, 32 µg/mL.
Turning to “Klebsiella pneumoniae isolate sewage #212 (carbapenemase genes (PCR): KPC+GES)”, the MIC is 8 µg/mL in the experiment with Imipenem, 32 µg/mL with Meropenem and 64 µg/mL with Ertapenem.
Turning to “Klebsiella pneumoniae isolate sewage #215 (carbapenemase genes (PCR): GES)”, the MIC in the experiment with Imipenem is 4 µg/mL; in the experiment with Meropenem, 16 µg/mL; with Ertapenem, 8 µg/mL.
For the test system “Klebsiella pneumoniae isolate sewage #216 (carbapenemase genes (PCR): KPC)”, the MIC with Imipenem was found to be 8 µg/mL; in the experiment with Meropenem, 32 µg/mL; with Ertapenem, 16 µg/mL.
With “Klebsiella pneumoniae isolate sewage #220 (carbapenemase genes (PCR): KPC+GES)”, the minimal inhibitory concentration (MIC) with Imipenem was 32 µg/mL; in the experiment with Meropenem, 32 µg/mL; in the experiment with Ertapenem, 16 µg/mL.
Regarding “Klebsiella pneumoniae isolate sewage #224 (carbapenemase genes (PCR): KPC)”, the minimum inhibitory concentration (MIC) with Imipenem was determined as 16 µg/mL; with Meropenem, 64 µg/mL; in the experiment with Ertapenem it was 8 µg/mL.
The matching figures for “Klebsiella variicola isolate primary sludge #2 (carbapenemase genes (PCR): OXA-48)”: 64 µg/mL, 32 µg/mL and 32 µg/mL.
The matching figures for “Klebsiella variicola isolate primary sludge #44 (carbapenemase genes (PCR): GES)”: 64 µg/mL, 32 µg/mL and 16 µg/mL.
For “Klebsiella variicola isolate primary sludge #60 (carbapenemase genes (PCR): GES)”, the MIC with Imipenem amounted to 32 µg/mL; in the experiment with Meropenem, 64 µg/mL; with Ertapenem it was 32 µg/mL.
Take “Klebsiella variicola isolate primary sludge #73 (carbapenemase genes (PCR): GES)”: the MIC with Imipenem turned out to be 64 µg/mL; with Meropenem, 64 µg/mL; with Ertapenem it was 16 µg/mL.
For the test system “Klebsiella variicola isolate primary sludge #79 (carbapenemase genes (PCR): GES)”, the results for the MIC with Imipenem, in the experiment with Meropenem and in the experiment with Ertapenem were 64 µg/mL, 64 µg/mL and 16 µg/mL, respectively.
For the test system “Klebsiella variicola isolate primary sludge #86 (carbapenemase genes (PCR): GES)”, the MIC is 64 µg/mL with Imipenem, 64 µg/mL with Meropenem and 32 µg/mL with Ertapenem.
For the test system “Klebsiella variicola isolate primary sludge #88 (carbapenemase genes (PCR): GES)”, the MIC with Imipenem stood at 32 µg/mL; with Meropenem, 64 µg/mL; with Ertapenem, 32 µg/mL.
Regarding “Klebsiella variicola isolate primary sludge #92 (carbapenemase genes (PCR): GES)”, the MIC with Imipenem, with Meropenem and in the experiment with Ertapenem was 32 µg/mL each time.
With “Klebsiella variicola isolate primary sludge #95 (carbapenemase genes (PCR): GES)”, the MIC in the experiment with Imipenem turned out to be 32 µg/mL; with Meropenem it was 64 µg/mL; with Ertapenem, 32 µg/mL.
As to “Klebsiella variicola isolate primary sludge #97 (carbapenemase genes (PCR): GES)”, the MIC with Imipenem stood at 32 µg/mL; with Meropenem it was 64 µg/mL; with Ertapenem, 32 µg/mL.
As for “Klebsiella variicola isolate primary sludge #180 (carbapenemase genes (PCR): KPC)”, the figures for the MIC with Imipenem, with Meropenem and in the experiment with Ertapenem were 64 µg/mL, 64 µg/mL and 16 µg/mL, respectively.
For “Klebsiella variicola isolate primary sludge #190 (carbapenemase genes (PCR): KPC)”, the MIC is 32 µg/mL with Imipenem, 32 µg/mL with Meropenem and 8 µg/mL in the experiment with Ertapenem.
In the case of “Klebsiella variicola isolate primary sludge #259 (carbapenemase genes (PCR): KPC)”, the MIC was found to be 8 µg/mL with Imipenem, 32 µg/mL with Meropenem and 4 µg/mL in the experiment with Ertapenem.
In the case of “Klebsiella variicola isolate secondary sludge #22 (carbapenemase genes (PCR): KPC)”, the figures for the MIC with Imipenem, in the experiment with Meropenem and with Ertapenem were 64 µg/mL, 128 µg/mL and 64 µg/mL, respectively.
For the test system “Klebsiella variicola isolate secondary sludge #78 (carbapenemase genes (PCR): KPC+GES)”, the minimum inhibitory concentration (MIC) in the experiment with Imipenem was 32 µg/mL; in the experiment with Meropenem, 64 µg/mL; in the experiment with Ertapenem, 16 µg/mL.
Consider “Klebsiella variicola isolate secondary sludge #175 (carbapenemase genes (PCR): KPC+GES)”, for which the MIC stood at 32 µg/mL with Imipenem, 64 µg/mL in the experiment with Meropenem and 8 µg/mL with Ertapenem.
In the case of “Klebsiella variicola isolate secondary sludge #214 (carbapenemase genes (PCR): GES)”, the MIC in the experiment with Imipenem is 16 µg/mL; with Meropenem, 32 µg/mL; with Ertapenem, 4 µg/mL.
“Klebsiella variicola isolate secondary sludge #216 (carbapenemase genes (PCR): GES)”: the MIC is 16 µg/mL with Imipenem, 32 µg/mL with Meropenem and 4 µg/mL with Ertapenem.
The corresponding values for “Klebsiella variicola isolate secondary sludge #217 (carbapenemase genes (PCR): GES)” are 16 µg/mL, 32 µg/mL and 4 µg/mL.
The matching figures for “Klebsiella variicola isolate sewage #4 (carbapenemase genes (PCR): KPC)”: 8 µg/mL, 32 µg/mL and 4 µg/mL.
The matching figures for “Klebsiella variicola isolate sewage #41 (carbapenemase genes (PCR): KPC)”: 32 µg/mL, 32 µg/mL and 32 µg/mL.
With “Klebsiella variicola isolate sewage #95 (carbapenemase genes (PCR): GES)”, the MIC with Imipenem stood at 64 µg/mL; in the experiment with Meropenem, 32 µg/mL; in the experiment with Ertapenem it was 16 µg/mL.
With “Klebsiella variicola isolate sewage #100 (carbapenemase genes (PCR): OXA-48)”, the MIC with Imipenem came to 64 µg/mL; with Meropenem it was 32 µg/mL; in the experiment with Ertapenem it was 16 µg/mL.
The corresponding values for “Klebsiella variicola isolate sewage #229 (carbapenemase genes (PCR): KPC+GES)” are 8 µg/mL, 32 µg/mL and 4 µg/mL.
The matching figures for “Kluyvera ascorbata isolate primary sludge #45 (carbapenemase genes (PCR): KPC)”: 128 µg/mL, 128 µg/mL and 64 µg/mL.
The corresponding values for “Kluyvera ascorbata isolate secondary sludge #55 (carbapenemase genes (PCR): KPC)” are 128 µg/mL, more than 128 µg/mL and 64 µg/mL.
Take “Kluyvera ascorbata isolate sewage #10 (carbapenemase genes (PCR): KPC)”: the values for the MIC in the experiment with Imipenem, with Meropenem and with Ertapenem were 32 µg/mL, more than 128 µg/mL and 8 µg/mL, respectively.
Regarding “Kluyvera ascorbata isolate sewage #104 (carbapenemase genes (PCR): KPC)”, the MIC in the experiment with Imipenem was 128 µg/mL; in the experiment with Meropenem, 64 µg/mL; in the experiment with Ertapenem it was 32 µg/mL.
With “Kluyvera ascorbata isolate sewage #107 (carbapenemase genes (PCR): KPC)”, the minimum inhibitory concentration (MIC) in the experiment with Imipenem is 128 µg/mL; with Meropenem it was more than 128 µg/mL; in the experiment with Ertapenem it was 64 µg/mL.
